First the molecules themselves.
B1: OR4K15 (parent)
chain: GUUAACGGUCAUAGGCCAUGGAAACUAGGAGCACCAUUUCGCUGCCAGUGAAGAAAUGAACAAAGAAAAUCUGGGCCAGGCAGGCAUCAAAAGAAAUAGUCUUGCGCUCAACCAGAAAGUCUGUAAUCAUUUUAAGGGUA

The source gives no read counts; variants with many changes may rest on few reads.

Drawing on the RNAGym collection of RNA variant scans (doi:10.7554/elife.90254), this text covers self-cleavage for 83 variants.

The variants in this data set derive from B1. Briefly: self-cleavage, relative activity (ratio to wild type); higher = more cleavage; in vitro, sequencing; the parent is a self-cleaving ribozyme.
In the case of A23U A36C A52G A55G, the self-cleavage was determined as 1.47.
The value for A23G A66G A86G G123C A140G was 0.19.
With A23G A60G A68G U72C A78C A82G A92G U120C U132A the figure was 0.06; with A23G A54G A68G A82G, 0.2.
As for A23G A24G G29U A52U A54G A86G A135G, the self-cleavage came out at 1.17.
In the case of A23G A55G A95G, the self-cleavage amounted to 1.13.
For A23G A68G U103C, the self-cleavage was 1.4.
As for A22U A47C U133C, the self-cleavage came out at 1.14.
Consider A23G U39C A62G, for which the self-cleavage amounted to 1.24.
Consider A22U A23G U49C A63U A94U A118G, for which the self-cleavage was 1.46.
With A23U U43A A91G the figure was 0.23.
Take A23G U57A A78G: the self-cleavage came to 0.18.
Consider A22U A27U A90G A94G A129C, for which the self-cleavage was 0.56.
With A23G A91G A96G the figure was 1.2.
With A23G G44U U103C, the self-cleavage was 1.08.
For the variant A23G U26C A30G U43C G74U A89G U139A, the self-cleavage worked out at 0.18.
As for A23G U39C U108C A111G, the self-cleavage was determined as 0.04.
With A24C A59G A92G A116G, the self-cleavage is 0.49.
For A23G A56G A82G U108A U122C, the self-cleavage is 0.
With A23C U57C A63G the figure was 1.17; with A23G A78G A92G A94G, 0.24.
As for A23G A56G A90G A116G, the self-cleavage turned out to be 0.25.
For A22U A52G A63G U122C U124C, the self-cleavage is 0.11.
With A23G U26C A51G U131C the figure was 1.25; with A24C A54G C85U U87A A95G A110G, 0.11; with A23G A82C U131C, 0.2.
With A23G A62G A64G, the self-cleavage was found to be 0.65.
With A23G U39C A96G the figure was 1.48; with A23G A51G U127C, 0.78.
For A23U A60G A82U A92G A95G U103G U124C A135U, the self-cleavage was 0.03.
The value for A23G A60G U124C was 1.15; that for A23G A69G G137A was 1.22.
Take A23G A69U A96U: the self-cleavage turned out to be 0.88.
Take A23G A54G A116G: the self-cleavage turned out to be 0.21.
Consider A23G A30G U37A U49C, for which the self-cleavage is 1.05.
The value for A23G C32U A110G U130C was 0.11; that for A23G A90G A116G U132C was 0.91.
Take A23G A56G U122C: the self-cleavage came to 0.76.
The value for A23G A30G A63G was 1.03; that for A23G A94G A116G was 0.63.
As to A22U A68G G75C A126G, the self-cleavage was determined as 0.12.
For the variant A23G U49C U97C C105U, the self-cleavage is 0.3.
In the case of A23G A60G A67G, the self-cleavage came out at 0.86.
Regarding A23G A89G A110G U139A, the self-cleavage came out at 0.09.
With A23U C32U G41A the figure was 2.22.
On to A23G A51G A116G, for which the self-cleavage was determined as 0.68.
The value for A23G U70C G80A A92G was 0.13; that for A23G A69U C77U U131C was 1.6; that for A23U A24G A59G A63G A78G U87C A95G was 0.12.
The value for A23G A24G A116G U124A was 0.51.
With A23G U122C A126G, the self-cleavage stood at 0.98.
With A23G U72C U103C A125G the figure was 0.03.
A23G A86U U130C: the self-cleavage is 0.77.
With A22U U97C C105U A118G the figure was 0.02; with A23C A66G U108C U122C, 0.01; with A22U A51G A59G A114G, 0.13.
As to A22U A92G G99A, the self-cleavage is 0.48.
The value for A22U A117C U122C U131C was 0.97; that for A23G A47U C85U A98G was 0.21.
The value for A23U U57C U70C was 0.96; that for A23U A24G C76G A82G A116U was 0.12.
With A22U A66G A78U, the self-cleavage is 0.25.
A23G U87A C109U: the self-cleavage came out at 0.36.
Consider A23G A89G A114G U120A, for which the self-cleavage amounted to 0.1.
As to A24C A36U A86G, the self-cleavage was determined as 0.91.
The value for A24C A47G G73U A125G was 0.04; that for A23G U39A U87C U130C was 0.79; that for A23G A33G A90G A118G A140G was 0.16.
With A22U A23G U72A G79U U100A A116U U122C U139A the figure was 0.01.
With A24C A66G A78U U102A the figure was 0.06; with A23G A82U A96G U100C U124A, 0.08.
Regarding A23G U49A U72C U103C, the self-cleavage was 0.08.
Consider A23G U43C A82U A91G U122C U131C, for which the self-cleavage came out at 0.01.
The value for A23C U37C A98C G106A A118G was 0.
Take A22U A36C A60G A94G A95G: the self-cleavage turned out to be 1.31.
With A22U A23G A59U U132C the figure was 1.31; with A22U A30G A36G G41A A91G A111G A116G, 0.02; with A23G A66G A86G, 0.21.
As for A23G A51G A91U, the self-cleavage worked out at 1.17.
With A23U A24G A67G, the self-cleavage was 1.15.
On to A23G A60G A116G, for which the self-cleavage stood at 1.14.
With A23U G53A A64G U72C the figure was 0.34; with A23G A51G A54G U122C A129U U133C, 0.86.
